# Reference: the supplement of paper PMC12217912
# The list shows a part of the results. The full chains were built here from the parent and the listed change. Inactive controls read about 0.05.
# B1: TEV protease; numbered along this chain (parent)
# chain: MGESLFKGPRDYNPISSSICHLTNESDGHTTSLYGIGFGPFIITNKHLFRRNNGTLVVQSLHGVFKVKDTTTLQQHLVDGRDMIIIRMPKDFPPFPQKLKFREPQREERICLVTTNFQTKSMSSMVSDTSCTFPSGDGIFWKHWIQTKDGQCGSPLVSTRDGFIVGIHSASNFTNTNNYFTSVPKNFMELLTNQEAQQWVSGWRLNADSVLWGGHKVFMVKPEEPFQPVKEATQL
# Variants of: B1
# Assay: raw area under fraction-flipped curve 0-4 h after induction (AUC4h, not background-subtracted), DNA-recorder readout of cleavage of the substrate (dimensionless); higher = more cleavage of the substrate by the protease variant
# Conditions: temperature: 34 °C; time window: 0-4 h after rhamnose induction
# Procedure: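 In vivo DNA recorder in E. coli TOP10(DE3) ΔrhaA at 34 °C. Each TEVp single-site mutant (parent TEVp 0) is paired with a single-site variant of the 7-mer TEVs (canonical ENLYFQ|S). The substrate sits between flexible linkers in a Bxb1-sfGFP-TEVs-SsrA fusion, so cleavage stabilises Bxb1 and speeds flipping of a recombination array, read by NGS. The value is the raw area under the fraction-flipped curve over 0-4 h after rhamnose induction (AUC4h), with ≥20 reads per time point. It is not background-subtracted; inactive controls average about 0.047.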
# 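Also: Bxb1 expression induced with 0.2% (w/v) L-rhamnose at OD600 near 0.5, cultures sampled hourly, flipped fraction per protease–substrate barcode pair counted by paired-end Illumina sequencing.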
Variant,area with substrate EALYFQS,area with substrate ECLYFQS,area with substrate EDLYFQS,area with substrate EELYFQS,area with substrate EFLYFQS,area with substrate EGLYFQS,area with substrate EILYFQS,area with substrate EKLYFQS,area with substrate ELLYFQS,area with substrate EPLYFQS,area with substrate ESLYFQS,area with substrate EWLYFQS,area with substrate EMLYFQS,area with substrate EQLYFQS,area with substrate ERLYFQS,area with substrate ETLYFQS,area with substrate EVLYFQS,area with substrate EYLYFQS,area with substrate EHLYFQS
V78G,0.073,0.0988,0.0712,0.0873,0.0994,0.0585,0.0535,0.0844,0.0616,0.0942,0.0846,0.0842,,,,,,,
V78A,0.0572,0.054,0.0827,0.0674,,0.0679,0.066,,,0.0464,0.0726,,0.0663,0.0888,0.0679,0.074,0.0832,0.0521,
P94Q,0.116,0.103,0.112,,,0.0935,0.0822,0.107,0.0694,0.131,0.094,,,0.105,,0.153,0.104,,
P94E,0.135,0.121,,0.119,0.0889,0.13,0.108,0.12,,,0.0961,,0.118,0.125,0.113,,0.125,,0.104
P94Y,0.139,0.107,0.105,0.101,,,0.0883,0.107,0.0705,0.135,0.106,0.0967,0.105,,0.0909,,,,
D91C,0.101,0.0729,0.121,,,0.0831,,,0.106,,,,,,0.0913,,,0.0901,0.107
L99C,0.112,0.0957,0.0703,,0.0965,0.0854,0.0948,0.0941,,0.121,0.0913,,0.114,0.109,0.0981,,,,
L99S,0.122,0.0719,,0.144,,0.0712,0.0787,,,,0.0961,,,0.115,0.11,,,0.0828,
D79V,0.116,0.0802,,0.0994,,0.0908,0.115,0.113,0.0475,,0.0987,0.102,0.0932,0.111,0.0952,,0.0956,0.0906,
D79G,0.0994,0.0868,0.127,0.0941,0.076,0.0908,0.0786,0.0653,0.0786,0.124,0.084,,0.114,0.126,,0.108,0.124,0.0853,
D79L,0.105,0.109,0.0965,0.0992,,,0.0906,0.0812,,0.0793,0.09,,,0.121,0.0843,,0.0792,,0.0891
F101Q,0.0468,0.0493,0.0478,,,,0.0405,0.0505,,0.0421,0.0546,0.049,,0.0577,0.0436,0.0438,0.054,,
E108P,0.0695,0.0538,0.0419,0.0986,,0.0782,0.0442,,,0.0742,0.0528,0.0664,,0.0653,0.0556,0.061,0.0836,,0.0554
E108Y,0.0706,0.0484,0.0648,0.0617,0.0525,0.0609,0.0645,0.0389,0.0612,0.0621,0.0694,,0.0609,0.0757,0.0761,0.0681,0.062,0.0655,
E108N,0.0888,0.0764,0.0942,0.11,,0.0602,0.0678,0.0684,0.0629,0.0915,0.0736,0.0572,0.0653,0.094,0.0665,,0.0724,0.0755,0.0786
I85C,0.0876,0.0733,0.0823,0.113,,,0.0693,0.0723,0.0766,,0.0739,0.0625,,0.0458,0.0881,,0.0846,0.0993,0.0639
I85F,0.103,0.111,0.15,,,,,,,,0.114,0.0813,0.116,0.0577,0.111,,,,0.0902
I85K,0.0552,0.0752,0.0845,0.0549,,0.0511,0.017,,0.0691,0.0532,0.0545,0.044,0.0574,,,,0.0842,0.0651,0.0789
Q74D,0.111,0.0925,,0.125,,0.0883,0.0974,0.103,0.0859,,0.106,,,0.105,0.0991,0.0845,0.105,0.131,0.104
Q74G,0.148,0.0797,0.125,0.134,,0.0856,0.119,,0.0854,,0.121,0.093,,,0.102,,0.0919,0.125,0.131
K100W,0.122,0.0764,,0.113,,0.0689,0.0897,0.102,0.0898,,0.1,0.0985,0.106,0.128,,,,0.103,
K100T,0.117,0.109,,0.0978,,0.0776,0.115,0.127,0.0982,,0.106,,0.103,0.115,,0.12,0.14,,
K100N,0.0948,0.107,,0.127,,0.101,,0.0951,0.102,0.188,,0.0949,0.129,0.143,,,,,
H76E,0.111,0.0819,0.0935,0.0815,0.0824,,0.0707,,0.0606,0.081,0.0822,0.0826,0.0833,0.0822,0.0844,,0.0851,0.0886,0.0738
F92T,0.113,0.134,0.127,0.118,0.0977,0.0908,0.116,0.0779,0.0999,,0.082,,0.111,0.129,0.0933,,,,
L77T,0.0587,0.0757,,0.0714,,0.0706,,0.0662,0.0545,,,,,,,,0.0664,,
E103K,0.098,0.0894,0.0767,,,0.0811,0.0699,,,0.0804,0.0907,0.0907,,0.0867,0.0904,,,0.101,0.0721
P89W,0.0773,0.0617,,0.0461,0.0634,,0.0544,0.0818,0.051,,0.071,0.0613,0,,0.0793,0.0541,0.0687,,0.0857
